{
  "source": "ChEMBL document CHEMBL4689842",
  "about": "“EUbOPEN Chemogenomics Library wave 1” (2021)",
  "format_in_all_cases": "toxicity, cell-based",
  "key": {"U2OS": {"tested_on": "U2OS", "assay": "Multiplex assay against U2OS", "details": "human", "how_it_was_run": "(§1)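 Hoechst33342, BioTracker Green Microtubule Cytoskeleton Dye, MitoTracker Red and Annexin V Alexa Fluor 680 were added to live cells at seeding, and imaging on a CQ1 microscope at 37°C and 5% CO2 followed compound addition. Gating by CellPathfinder machine learning separated cells into Hoechst high-intensity objects or normal cells, then normal cells into healthy, pyknosed or fragmented nuclei, then pyknosed cells into mitotic or apoptotic. Per cents of healthy-nucleus cells are reported for the tubulin, mitochondrial-mass and membrane-permeability phenotypes.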"}, "HEK-293T": {"tested_on": "HEK-293T", "assay": "Multiplex assay against HEK293T", "details": "human", "how_it_was_run": "as §1"}, "Fibroblast": {"tested_on": "Fibroblast", "assay": "Multiplex assay against human fibroblast", "how_it_was_run": "as §1"}, "[1]": {"details": "12 h, 1 µM, compound concentration 1 uM, replicate 1"}, "[2]": {"details": "24 h, 1 µM, compound concentration 1 uM, replicate 1"}, "[3]": {"details": "24 h, 1 µM, compound concentration 1 uM, replicate 2"}, "[4]": {"details": "12 h, 1 µM, compound concentration 1 uM, replicate 2"}, "[5]": {"details": "12 h, 10 µM, compound concentration 10 uM, replicate 1"}, "[6]": {"details": "12 h, 10 µM, compound concentration 10 uM, replicate 2"}, "[7]": {"details": "24 h, 10 µM, compound concentration 10 uM, replicate 2"}, "[8]": {"details": "24 h, 10 µM, compound concentration 10 uM, replicate 1"}},
  "note": "Certain results were filed several times, with different values. Only these are listed. There may be further records. The records of an entry are repeated measurements in other runs, samples, wells, individuals or studies.",
  "data": [
    {"smiles": "C[C@]1(O)C[C@@H](c2nc(-c3ccc4ccc(-c5ccccc5)nc4c3)c3c(N)nccn32)C1", "note": "[LINSITINIB]", "values": [
      {"measurement": "Population Membrane Permeable-Phenotype (%)", "setting": "U2OS; [1]", "value": "33% and 9%"},
      {"measurement": "Population Hoechst High Intensity Objects (%)", "setting": "U2OS; [2]", "value": "5% and 1%"},
      {"measurement": "Population Apoptotic (%)", "setting": "U2OS; [3]", "value": "40% and 0%"},
      {"measurement": "Population Hoechst High Intensity Objects (%)", "setting": "U2OS; [3]", "value": "4% and 13%"},
      {"measurement": "Population Tubulin-Different-Phenotype (%)", "setting": "HEK-293T; [1]", "value": "49% and 8%"},
      {"measurement": "Population Mitochondria Different-Phenotype (%)", "setting": "HEK-293T; [4]", "value": "50% and 15%"},
      {"measurement": "Population Tubulin-Different-Phenotype (%)", "setting": "HEK-293T; [4]", "value": "85% and 17%"},
      {"measurement": "Population Tubulin-Different-Phenotype (%)", "setting": "HEK-293T; [2]", "value": "73% and 18%"},
      {"measurement": "Population Apoptotic (%)", "setting": "HEK-293T; [3]", "value": "19% and 6%"},
      {"measurement": "Population Mitochondria Different-Phenotype (%)", "setting": "HEK-293T; [3]", "value": "41% and 3%"},
      {"measurement": "Population Tubulin-Different-Phenotype (%)", "setting": "HEK-293T; [3]", "value": "92% and 24%"},
      {"measurement": "Population Mitotic Cells (%)", "setting": "Fibroblast; [1]", "value": "43% and 6%"},
      {"measurement": "Population Tubulin-Different-Phenotype (%)", "setting": "Fibroblast; [1]", "value": "23% and 6%"},
      {"measurement": "Population Mitochondria Different-Phenotype (%)", "setting": "Fibroblast; [4]", "value": "7% and 27%"},
      {"measurement": "Population Tubulin-Different-Phenotype (%)", "setting": "Fibroblast; [4]", "value": "7% and 72%"},
      {"measurement": "Population Tubulin-Different-Phenotype (%)", "setting": "Fibroblast; [2]", "value": "20% and 6%"},
      {"measurement": "Population Mitochondria Different-Phenotype (%)", "setting": "Fibroblast; [3]", "value": "10% and 36%"},
      {"measurement": "Population Tubulin-Different-Phenotype (%)", "setting": "Fibroblast; [3]", "value": "10% and 63%"}
    ]},
    {"smiles": "CCC1=C[C@@H]2C[N@](C1)Cc1c([nH]c3ccccc13)[C@@](C(=O)OC)(c1cc3c(cc1OC)N(C)[C@H]1[C@@](O)(C(=O)OC)[C@H](OC(C)=O)[C@]4(CC)C=CCN5CC[C@]31[C@@H]54)C2.O=C(O)C(O)C(O)C(=O)O.O=C(O)C(O)C(O)C(=O)O", "note": "[VINORELBINE TARTRATE]", "values": [
      {"measurement": "Population Hoechst High Intensity Objects (%)", "setting": "U2OS; [1]", "value": "2% and 7%"},
      {"measurement": "Population Membrane Permeable-Phenotype (%)", "setting": "U2OS; [1]", "value": "57% and 16%"},
      {"measurement": "Total Cell Count", "setting": "U2OS; [1]", "value": "145 and 2893"},
      {"measurement": "Population Apoptotic (%)", "setting": "U2OS; [4]", "value": "64% and 20%"},
      {"measurement": "Population Membrane Permeable-Phenotype (%)", "setting": "U2OS; [4]", "value": "52% and 11%"},
      {"measurement": "Total Cell Count", "setting": "U2OS; [4]", "value": "105 and 3493"},
      {"measurement": "Population Membrane Permeable-Phenotype (%)", "setting": "U2OS; [5]", "value": "66% and 13%"},
      {"measurement": "Population Apoptotic (%)", "setting": "U2OS; [6]", "value": "59% and 17%"},
      {"measurement": "Total Cell Count", "setting": "U2OS; [2]", "value": "3211 and 173"},
      {"measurement": "Total Cell Count", "setting": "U2OS; [3]", "value": "111 and 3609"},
      {"measurement": "Population Membrane Permeable-Phenotype (%)", "setting": "U2OS; [7]", "value": "61% and 15%"},
      {"measurement": "Population Mitotic Cells (%)", "setting": "U2OS; [7]", "value": "17% and 52%"},
      {"measurement": "Population Membrane Permeable-Phenotype (%)", "setting": "HEK-293T; [1]", "value": "16% and 4%"},
      {"measurement": "Population Tubulin-Different-Phenotype (%)", "setting": "HEK-293T; [1]", "value": "25% and 5%"},
      {"measurement": "Population Tubulin-Different-Phenotype (%)", "setting": "HEK-293T; [4]", "value": "47% and 2%"},
      {"measurement": "Population Membrane Permeable-Phenotype (%)", "setting": "HEK-293T; [5]", "value": "23% and 2%"},
      {"measurement": "Population Tubulin-Different-Phenotype (%)", "setting": "HEK-293T; [5]", "value": "35% and 5%"},
      {"measurement": "Population Tubulin-Different-Phenotype (%)", "setting": "HEK-293T; [6]", "value": "52% and 2%"},
      {"measurement": "Population Mitochondria Different-Phenotype (%)", "setting": "HEK-293T; [2]", "value": "5% and 25%"},
      {"measurement": "Population Tubulin-Different-Phenotype (%)", "setting": "HEK-293T; [2]", "value": "6% and 55%"},
      {"measurement": "Population Tubulin-Different-Phenotype (%)", "setting": "HEK-293T; [3]", "value": "71% and 1%"},
      {"measurement": "Population Membrane Permeable-Phenotype (%)", "setting": "HEK-293T; [8]", "value": "2% and 12%"},
      {"measurement": "Population Tubulin-Different-Phenotype (%)", "setting": "HEK-293T; [8]", "value": "6% and 54%"},
      {"measurement": "Population Mitochondria Different-Phenotype (%)", "setting": "HEK-293T; [7]", "value": "26% and 6%"},
      {"measurement": "Population Tubulin-Different-Phenotype (%)", "setting": "HEK-293T; [7]", "value": "79% and 3%"},
      {"measurement": "Population Membrane Permeable-Phenotype (%)", "setting": "Fibroblast; [1]", "value": "11% and 3%"},
      {"measurement": "Population Pyknosed Nuclei (%)", "setting": "Fibroblast; [4]", "value": "2% and 8%"},
      {"measurement": "Population Tubulin-Different-Phenotype (%)", "setting": "Fibroblast; [4]", "value": "33% and 0%"},
      {"measurement": "Population Membrane Permeable-Phenotype (%)", "setting": "Fibroblast; [2]", "value": "2% and 7%"},
      {"measurement": "Total Cell Count", "setting": "Fibroblast; [2]", "value": "440 and 140"},
      {"measurement": "Population Apoptotic (%)", "setting": "Fibroblast; [3]", "value": "0% and 60%"},
      {"measurement": "Population Membrane Permeable-Phenotype (%)", "setting": "Fibroblast; [3]", "value": "33% and 9%"},
      {"measurement": "Population Apoptotic (%)", "setting": "Fibroblast; [7]", "value": "20% and 100%"},
      {"measurement": "Population Mitotic Cells (%)", "setting": "Fibroblast; [7]", "value": "80% and 0%"},
      {"measurement": "Population Pyknosed Nuclei (%)", "setting": "Fibroblast; [7]", "value": "7% and 1%"}
    ]}
  ]
}
